tested on: Blumeria graminis f. sp. tritici (Erysiphe graminis f. sp. tritici); details: in Triticum aestivum, foliar, read-out: control of Blumeria graminis (percent disease control compared to untreated)

Structure (SMILES)	pest or weed control at 200 ppm [%]
C/C(=N\OCCCc1ccnc(-c2cccc(C)n2)n1)c1cccc(C)n1 [P.45, E-1-(6-methyl-2-pyridyl)-N-[3-[2-(6-methyl-2-pyridyl)pyrimidin-4-yl]propoxy]ethanimine]	≥ 80
C=CCOc1cc(C)nc(-c2cccc(CCCO/N=C(\C)c3cc(C)cc(C)n3)n2)c1 [P.30]	≥ 80
C#CCOc1cc(C)nc(-c2cccc(CCCO/N=C(\C)c3cc(C)cc(C)n3)n2)c1 [P.29]	≥ 80
CC(=O)c1ccc(-c2cccc(CCCO/N=C(\C)c3cccc(C)n3)n2)nc1C [P.20]	≥ 80
COc1cc(C)nc(-c2cccc(CCCO/N=C(\C)c3cc(C)cc(C)n3)n2)c1 [P.13]	≥ 80
CCOc1cc(CC)nc(-c2cccc(CCCO/N=C(\C)c3cccc(C)n3)n2)c1C [P.34]	≥ 80
CSc1cc(C)nc(-c2cccc(CCCO/N=C(\C)c3cccc(C)n3)n2)c1 [P.17]	≥ 80
C/C(=N\OCCCc1cccc(-c2ncccn2)n1)c1cccc(C)n1 [P.04]	≥ 80
CON=C(C)c1ccc(-c2cccc(CCCO/N=C(\C)c3cccc(C)n3)n2)nc1C [P.22]	≥ 80
COc1cc(C)nc(-c2cccc(CCCO/N=C(\C)c3cccc(C)n3)n2)c1 [P.11, 1-(6-methyl-pyridin-2-yl)-ethanone-O-[3-(4′-methoxy-6′-methyl-[2,2]bipyridinyl-6-yl)-propyl]-oxime]	≥ 80
CCc1ccc(C)c(-c2cccc(CCCO/N=C(\C)c3cccc(C)n3)n2)n1 [P.42]	≥ 80
C=CCOc1cc(C)nc(-c2cccc(CCCO/N=C(\C)c3cccc(C)n3)n2)c1 [P.25]	≥ 80
CCCOc1cc(C)nc(-c2cccc(CCCO/N=C(\C)c3cc(C)cc(C)n3)n2)c1 [P.31]	≥ 80
COc1cc(C)nc(-c2cccc(CCCO/N=C(\C)c3nc(C)cc(C)n3)n2)c1 [P.44]	≥ 80
C/C(=N\OCCCc1cccc(-c2cc(OC(C)C)cc(C)n2)n1)c1cccc(C)n1 [P.27]	≥ 80
C/C(=N\OCCCc1cccc(-c2ccccn2)n1)c1cccc(C)n1 [P.01]	≥ 80
CCON=C(C)c1ccc(-c2cccc(CCCO/N=C(\C)c3cccc(C)n3)n2)nc1C [P.23]	≥ 80
C/C(=N\OCCCc1cccc(-c2ccnc(C3CC3)n2)n1)c1cccc(C)n1 [P.07]	≥ 80
COc1cc(C)nc(-c2ccc(OC)c(CCCO/N=C(\C)c3cccc(C)n3)n2)c1 [P.43]	≥ 80

Structure (SMILES)	pest or weed control at 200 ppm [%]
CCc1cc(SC)c(C)c(-c2cccc(CCCO/N=C(\C)c3cccc(C)n3)n2)n1 [P.40]	≥ 80
C/C(=N\OCCCc1cccc(-c2cc(Cl)cc(C)n2)n1)c1cccc(C)n1 [P.16, 1-(6-methyl-pyridin-2-yl)-ethanone-O-[3-(4′-chloro-6′-methyl-[2,2′]bipyridinyl-6-yl)-propyl]-oxime]	≥ 80
CCc1cc(OC(C)C)c(C)c(-c2cccc(CCCO/N=C(\C)c3cccc(C)n3)n2)n1 [P.36]	≥ 80
C#CCOc1cc(CC)nc(-c2cccc(CCCO/N=C(\C)c3cccc(C)n3)n2)c1C [P.38]	≥ 80
C#CCOc1cc(C)nc(-c2cccc(CCCO/N=C(\C)c3cccc(C)n3)n2)c1 [P.24]	≥ 80
CCOc1cc(C)nc(-c2cccc(CCCO/N=C(\C)c3cc(C)cc(C)n3)n2)c1 [P.28]	≥ 80
C/C(=N\OCCCc1cccc(-c2nc(C)cc(C)n2)n1)c1cccc(C)n1 [P.05]	≥ 80
CCCOc1cc(CC)nc(-c2cccc(CCCO/N=C(\C)c3cccc(C)n3)n2)c1C [P.35]	≥ 80
CCOc1cc(C)nc(-c2cccc(CCCO/N=C(\C)c3cccc(C)n3)n2)c1 [P.12]	≥ 80
C/C(=N\OCCCc1cccc(-c2cc(Br)cc(C)n2)n1)c1cccc(C)n1 [P.18]	≥ 80
C/C(=N\OCCCc1cccc(-c2cc(OCc3ccccc3)cc(C)n2)n1)c1cccc(C)n1 [P.15]	≥ 80
C/C(=N\OCCCc1cccc(-c2cc(C)cc(C)n2)n1)c1cccc(C)n1 [P.19]	≥ 80
CCc1cc(OC)c(C)c(-c2cccc(CCCO/N=C(\C)c3cccc(C)n3)n2)n1 [P.33]	≥ 80
CCc1cc(Br)c(C)c(-c2cccc(CCCO/N=C(\C)c3cccc(C)n3)n2)n1 [P.41]	≥ 80
CCc1cc(Cl)c(C)c(-c2cccc(CCCO/N=C(\C)c3cccc(C)n3)n2)n1 [P.39]	≥ 80
C/C(=N\OCCCc1cccc(-c2nccc(C)n2)n1)c1cccc(C)n1 [P.02]	≥ 80
C=CCOc1cc(CC)nc(-c2cccc(CCCO/N=C(\C)c3cccc(C)n3)n2)c1C [P.37]	≥ 80
CCCOc1cc(C)nc(-c2cccc(CCCO/N=C(\C)c3cccc(C)n3)n2)c1 [P.26]	≥ 80
C/C(=N\OCCCc1cccc(-c2cccc(C)n2)n1)c1cccc(C)n1 [P.21]	≥ 80
